Measured values as given in PMC12136788.
This is one part of the list.

T1: UNK ZnF1-3 (human, UniProt Q9C0B0 31-174)
T1 sequence: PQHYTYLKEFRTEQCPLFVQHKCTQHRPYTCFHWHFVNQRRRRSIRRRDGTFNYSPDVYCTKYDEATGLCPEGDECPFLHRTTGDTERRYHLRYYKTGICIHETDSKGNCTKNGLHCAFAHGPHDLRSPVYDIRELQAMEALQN

B1: chr16:47005550:47005551:-_ENSG00000069345_ENST00000563158|hu_hu|motif|central (ssRNA)
RNA: GGGAGUUCUACAGUCCGACGAUCUAAAGAAAAGGUAAAAAUAAAAAUAAUUGCAUUUUCAAGUAGAAGAGUGGGGAGAAGCGGCAGGAAUCCAGAAUCCAUUUAAUUUUUGUCUCCUGCAUUUGGAUUCUUAUCAGGAUGAUACAACAGAGGAUUGAGCAUCA
B2: chr7:54825262:54825263:-_ENSG00000132432_ENST00000352861|hu_hu|hu_hu_hu_mus_False|1_18 (ssRNA)
RNA: GGGAGUUCUACAGUCCGACGAUCCUGCCGGCUGGGCUCCACAAACUGCAUUACCUGAUCCAUGUUUGUUGGAUGGCGGAUUGAGAGCGUAGAGACACGUAGCUCAGGAGAGAACCGGAUGGAGGCCAACCGGAAGCGGAAUCCCAACAGAGGAUUGAGCAUCA
B3: chr11:70340070:70340071:+_ENSMUSG00000018286_ENSMUST00000018430|mus_mus|motif|central (ssRNA)
RNA: GGGAGUUCUACAGUCCGACGAUCCAGAUCUUCUCUGUACCGGUAACACAUCUCCUUAAAGAGACUGGCGGCUGUGUGGACGGGUGGAGGCUCGUUCAGUUCAAUACUGUGGAAACCAAGCUGGUAAGUGACAGCGUCUGCCACCAACAGAGGAUUGAGCAUCA
B4: chr10:1088697:1088698:-_ENSG00000067064_ENST00000381344|hu_mus|FALSE|FALSE (ssRNA)
RNA: GGGAGUUCUACAGUCCGACGAUCGUUCUCUUCCAGCUCGCCUGGGUUACUUAAUGGAUGACUACAGCAACUAUUGGUGAAACAACCUGGAAAGGUAAUUUUAGCAUCUGAUCUCUGCUGUAACAGGAGCUUAUUUUCAGUAUUCAACAGAGGAUUGAGCAUCA
B5: chr16:87731977:87731978:+_ENSMUSG00000025612_ENSMUST00000026703|mus_mus|FALSE|FALSE (ssRNA)
RNA: GGGAGUUCUACAGUCCGACGAUCAUGUACUUUCACACAGUGAGCACUCUCUCCCAGGAAAAUUGAGUGGACUUCUCAAAAUUUCUAGAAAAUAAUUCCAAUUUAAUUUUCUCUUCCAAAGAUGAAAACACAUACCACCCUUCCCAACAGAGGAUUGAGCAUCA
B6: chr19:8871877:8871878:-_ENSMUSG00000071662_ENSMUST00000096261|mus_hu|FALSE|FALSE (ssRNA)
RNA: GGGAGUUCUACAGUCCGACGAUCGCCUGGCUGGAUCACACCAGCACCAAUAUUGUCAAUGGUGGUGACAGCAAUUACAAAGCCAUACUUCCCUGUGCAGGUCCCCUCCACCUCGGUGAAGAGCUUCUGCUUCACCGUGUUGAGCAACAGAGGAUUGAGCAUCA
B7: 61391936_61396343_1189_CDS_ENSG00000170921_ENST00000424789|human|control|control (ssRNA)
RNA: GGGAGUUCUACAGUCCGACGAUCUGGCAGCUCUCUGUUGGCAUCCACAUGUUUGGGGGAGGCAUGUGGGCUGUCUGAGGCGAUCUGUCUCAUCCUUGUACCAUGGCAGCUGAGGGCCACCAGUCUGGAGAUGAUGGCAGUUUUCAACAGAGGAUUGAGCAUCA
B8: chr1:10364632:10364633:+_ENSG00000054523_ENST00000377093|hu_hu|FALSE|FALSE (ssRNA)
RNA: GGGAGUUCUACAGUCCGACGAUCUCGACCAGCUUUGAGAUUGGGUGCUGAGAACUGUCUCCUCAUCCGCGGAGGUGUCACAAACUGGCUACAGUGGCUGGGUUUGUCAGUCUGCUUCUGAUAGGAAGUGGCUGCAUUGCCCUCCAACAGAGGAUUGAGCAUCA
B9: chr7:138125181:138125182:+_ENSMUSG00000006205_ENSMUST00000006367|mus_mus|FALSE|FALSE (ssRNA)
RNA: GGGAGUUCUACAGUCCGACGAUCGAUGCCCGCCGUCACCUUCAAGGUGUUAAUCCCAAUCACCUCGCCAUCCAGGUUUACUAACGGGCCUCCGGAAUUUCCAUAAUUGAUGAUAGCGUCUGUCUGAAUGUAGUCCAUAUCGGACAACAGAGGAUUGAGCAUCA
B10: chr2:28002375:28002376:+_ENSG00000243147_ENST00000296102|hu_mus|FALSE|FALSE (ssRNA)
RNA: GGGAGUUCUACAGUCCGACGAUCCUUCAUUGCACACUGCAGAGUUCGAAACGGUGCCUCACCCUCGAGCUUCUCAUUUAGGAAUCAAAUUCAUUUUCAAUCCACUACUCAGAGGGAACGGAUUUUUUUCUGUUCCACAAAGAGCAACAGAGGAUUGAGCAUCA
B11: chr9:99427540:99427541:-_ENSMUSG00000032468_ENSMUST00000035043|mus_hu|FALSE|FALSE (ssRNA)
RNA: GGGAGUUCUACAGUCCGACGAUCUUCUCCAUCAACCAAAACAUUUACCAGGGUCAUCGAUACCUGGGGGUUUUCAAAAGCUAAAACUGAGAAACAUUUCAGUGCUUGCAUUCGAACUUUGUAGGACAGUGAGGUUAGUAGGUGCAACAGAGGAUUGAGCAUCA
B12: chr6:41757443:41757444:+_ENSG00000214736_ENST00000398881|hu_mus|hu_hu_hu_mus_False|38_68 (ssRNA)
RNA: GGGAGUUCUACAGUCCGACGAUCGAACCGUGCAGAGGCAACAUCUCAGCCGACACUGGGGGAUGGGGGAACAAAAGGGGGGGGUUCAGGCAAGGAGAAGAAAAGUGCUUCAGCUGCCACUCAGGUAGGAUCUUGUGGUCACAGCAACAGAGGAUUGAGCAUCA
B13: 38065126_38065246_7389_3pUTR_ENSMUSG00000021427_ENSMUST00000021864|mouse|control|control (ssRNA)
RNA: GGGAGUUCUACAGUCCGACGAUCGCCAGGGAGAAAUCAAAAGAAACAUGAAAGACCACGAGCCUUGCGAGGGGAACGGAGGCAGCCAGAAGCACAGAGGACACUCUGACAAAAGAGAAGCUGACACAGAGAAGGAUCUGUAGGCAACAGAGGAUUGAGCAUCA
B14: 107187324_107187444_78_3pUTR_ENSG00000125266_ENST00000245323|human|control|control (ssRNA)
RNA: GGGAGUUCUACAGUCCGACGAUCCCCAGCUCCGCGCACUCCGGGCCAAGAAGGGACUGACGGGACGCAGGCUGGGACCCCCAAUCCUCCGGGGCAGACUGGCGGGGAAGACGGCGUGCGCCCGCAGGCAGCUCCGAGGCGCGCCAACAGAGGAUUGAGCAUCA

Target: T1, UNK ZnF1-3
Assay: nsRBNS (natural sequence RNA bind-n-seq); RBNS binding buffer (assumed for nsRBNS): 25 mM Tris pH 7.5, 150 mM KCl, 3 mM MgCl2, 0.01% Triton X-100, 500 ug/ml BSA, 20 U/ml SUPERase-In, 4 C; UNK is unkempt and MSI1 is Musashi-1; names of the RNAs are library labels; protein concentration not given here; high values mean tight binding

Row | Binder | binding signal [enrichment R]
1 | B1 | 1.59
2 | B2 | 1.07
3 | B3 | 0.815
4 | B4 | 0.999
5 | B5 | 1.65
6 | B6 | 0.609
7 | B7 | 0.439
8 | B8 | 0.491
9 | B9 | 0.793
10 | B10 | 0.725
11 | B11 | 1.51
12 | B12 | 2.15
13 | B13 | 2.1
14 | B14 | 0.661
